From a collection of fitness landscapes (doi:10.1126/science.1257360)
This is one part of the list.

B1: PhoQ; a variant is named by its letters at X, in order, P23837 (parent)
chain: MKKLLRLFFPLSLRVRFLLATAAVVLVLSLAYGMVALIGYSVSFDKTTFRLLRGESNLFYTLAKWENNKLHVELPENIDKQSPTMTLIYDENGQLLWAQRDVPWLMKMIQPDWLKSNGFHEIEADVNDTSLLLSGDHSIQQQLQEVREDDDDAEMTHSVAVNVYPATSRMPKLTIVVVDTIPVELKSSYMVWSWFIYVLSANLLLVIPLLWVAAWWSLRPIEALAKEVRELEEHNRELLNPATTRELTSLVRNLNRLLKSERERYDKYRTTLTDLTHSLKTPLXXLQXXLRSLRSEKMSVSDAEPVMLEQISRISQQIGYYLHRASMRGGTLLSRELHPVAPLLDNLTSALNKVYQRKGVNISLDISPEISFVGEQNDFVEVMGNVLDNACKYCLEFVEISARQTDEHLYIVVEDDGPGIPLSKREVIFDRGQRVDTLRPGQGVGLAVAREITEQYEGKIVAGESMLGGARMEVIFGRQHSAPKDE

Variants of: B1
Assay: enrichment ratio after two sorts for PhoP signalling (ratio (wild type AVST 3.29)); higher = more functional
Details: with PhoP (E. coli)

Variant	enrichment ratio
HMQF	≤ 0.25
DHPL	≤ 0.25
TFEI	≤ 0.25
YIRL	≤ 0.25
KQLG	≤ 0.25
PYYM	≤ 0.25
MNPI	≤ 0.25
ICAL	0.516
HCTF	≤ 0.25
DCIE	≤ 0.25
NMWM	≤ 0.25
RSFG	≤ 0.25
GGVH	≤ 0.25
HYFT	≤ 0.25
QSVE	≤ 0.25
HLCF	≤ 0.25
DTFV	≤ 0.25
FSVY	≤ 0.25
RAFF	≤ 0.25
KIIA	≤ 0.25
AGER	≤ 0.25
AYLQ	0.526
GDYS	≤ 0.25
HRFI	≤ 0.25
RQPD	≤ 0.25

Variant	enrichment ratio
YHKY	≤ 0.25
QDDL	≤ 0.25
YHFW	≤ 0.25
DFHT	≤ 0.25
HWGE	≤ 0.25
KQPH	≤ 0.25
HVRW	1.21
YNEV	≤ 0.25
IIIN	≤ 0.25
TNMA	5.41
PCAF	≤ 0.25
LGPH	≤ 0.25
MIMF	0.51
MACN	1.06
EGPT	≤ 0.25
LLWD	≤ 0.25
NQIC	≤ 0.25
QIAF	≤ 0.25
EDKG	≤ 0.25
PLTS	≤ 0.25
MLEG	≤ 0.25
GWKT	≤ 0.25
HELF	≤ 0.25
YQFS	≤ 0.25
FWME	≤ 0.25

Variant	enrichment ratio
GLWE	≤ 0.25
WRNW	≤ 0.25
YFNK	≤ 0.25
MAWA	≤ 0.25
FCTW	≤ 0.25
NFCL	≤ 0.25
QWHV	≤ 0.25
VMTL	1.45
GIFD	≤ 0.25
PQQD	≤ 0.25
IWFD	≤ 0.25
MPWI	≤ 0.25
DKTF	≤ 0.25
WYFI	≤ 0.25
PNPC	≤ 0.25
MFKQ	≤ 0.25
GFAM	≤ 0.25
LPDL	≤ 0.25
VTKM	≤ 0.25
YCGK	≤ 0.25
WAYN	≤ 0.25
SCSE	7.26
STIG	6.57
LRSA	≤ 0.25
NGFD	≤ 0.25

Variant	enrichment ratio
IRTM	≤ 0.25
VWTN	≤ 0.25
FSCQ	7.11
YPPS	0.298
VFYA	≤ 0.25
VHDV	≤ 0.25
FFKV	≤ 0.25
TKHP	≤ 0.25
YPSL	≤ 0.25
SLGR	0.305
WCLK	≤ 0.25
GRSC	≤ 0.25
PAFM	≤ 0.25
SMWL	≤ 0.25
PESS	≤ 0.25
LPQT	≤ 0.25
YWKV	≤ 0.25
MNWW	≤ 0.25
HWRV	≤ 0.25
GVRM	≤ 0.25
WRCD	≤ 0.25
GFCH	≤ 0.25
LKPC	≤ 0.25
HLIG	≤ 0.25
EFHR	≤ 0.25

Variant	enrichment ratio
SGDQ	≤ 0.25
SHSG	1.68
PSQC	≤ 0.25
DEKS	1.38
NHIW	≤ 0.25
LLSN	≤ 0.25
GNYS	≤ 0.25
DRYH	≤ 0.25
IKTK	≤ 0.25
DERG	≤ 0.25
VGPM	≤ 0.25
PCEL	≤ 0.25
SAVR	≤ 0.25
KNLR	≤ 0.25
GHRH	≤ 0.25
SCYF	≤ 0.25
SRVL	5.71
PHCF	≤ 0.25
FEYM	2.71
LDAT	≤ 0.25
THEY	≤ 0.25
WADD	≤ 0.25
WLTS	≤ 0.25
HQLY	0.308
PSLS	≤ 0.25

Variant	enrichment ratio
YPCR	≤ 0.25
YDIR	≤ 0.25
VQLR	≤ 0.25
FCNP	≤ 0.25
DRPF	≤ 0.25
YPNN	≤ 0.25
TGFW	≤ 0.25
YLYT	≤ 0.25
ITWF	≤ 0.25
WEFW	≤ 0.25
LFSL	≤ 0.25
ADSY	≤ 0.25
VSSN	≤ 0.25
PATS	≤ 0.25
GFAE	≤ 0.25
QPVC	≤ 0.25
NHQQ	≤ 0.25
RIVE	≤ 0.25
MKEA	≤ 0.25
NVDD	≤ 0.25
KDTQ	≤ 0.25
VVNL	≤ 0.25
RGMV	≤ 0.25
VAGG	≤ 0.25
PYKG	≤ 0.25

Variant	enrichment ratio
LCYT	≤ 0.25
HYMD	≤ 0.25
FEIP	≤ 0.25
MIDH	≤ 0.25
LDYW	≤ 0.25
IGHA	≤ 0.25
LSGT	≤ 0.25
YIHQ	≤ 0.25
MFCC	≤ 0.25
VVFV	≤ 0.25
HYGS	≤ 0.25
GYLT	≤ 0.25
YWCI	≤ 0.25
DMGP	≤ 0.25
PEFR	≤ 0.25
ACFI	≤ 0.25
WHSP	≤ 0.25
THNL	12.7
RMPP	≤ 0.25
EKSK	≤ 0.25
NDSK	≤ 0.25
HVDF	≤ 0.25
RISG	≤ 0.25
DYYD	≤ 0.25
FECY	≤ 0.25

Variant	enrichment ratio
RDPW	≤ 0.25
KAPE	≤ 0.25
GFHA	≤ 0.25
APGW	≤ 0.25
RQGW	≤ 0.25
SIQP	≤ 0.25
RKDV	≤ 0.25
SSDD	≤ 0.25
DETP	≤ 0.25
VACS	≤ 0.25
ADQL	≤ 0.25
VQVW	≤ 0.25
TMAM	26.9
RFYT	≤ 0.25
MYCL	≤ 0.25
MMEF	≤ 0.25
NSYV	≤ 0.25
AMWG	≤ 0.25
REWY	≤ 0.25
PGCN	≤ 0.25
